Our source for the binding values is publication PMC13034042.

Chains of the proteins cited; added tags and fusions are not shown. Lines headed by an entry give the natural chain unless they say otherwise; changes in a name come on top.
UniProt P0CX44: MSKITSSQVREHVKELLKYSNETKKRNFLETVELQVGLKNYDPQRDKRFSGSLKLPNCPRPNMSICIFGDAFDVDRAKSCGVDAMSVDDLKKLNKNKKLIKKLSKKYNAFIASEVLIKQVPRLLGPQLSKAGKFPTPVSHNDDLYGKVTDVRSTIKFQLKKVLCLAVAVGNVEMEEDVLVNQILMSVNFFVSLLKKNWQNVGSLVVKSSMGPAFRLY

Common to all, as to assay: two-hybrid; Y2H in reporter strain PJ69-4A; G4BD bait and G4AD prey from monocopy plasmids (ADH1 promoter); growth on SC-HLT (HIS3) and SC-ALT (ADE2) plates, 3 days at 30°C
The target in assay [1] is Rpl1b, full length, Y2H fusion (S. cerevisiae) (UniProt P0CX44).
Assay [2] deals with Rpl1 R45/K47/R48 to glutamate variant, Y2H fusion (S. cerevisiae) (UniProt P0CX44).
The target in assay [3] is Rpl1 K195/K196 to alanine variant, Y2H fusion (S. cerevisiae) (UniProt P0CX44).
Assay [4] deals with Rpl1 K195/K196 to glutamate variant, Y2H fusion (S. cerevisiae) (UniProt P0CX44).
The target of assay [5] is Rpl1 R45/K47/R48 to alanine variant, Y2H fusion (S. cerevisiae) (UniProt P0CX44).
Assay [6] concerns the target T1, Bcl1.323C R385A/P388A/Y389A, Y2H fusion (S. cerevisiae) (UniProt P53962).
T1 sequence: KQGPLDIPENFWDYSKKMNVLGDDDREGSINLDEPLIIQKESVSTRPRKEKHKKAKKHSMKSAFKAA

For assay [7], the target named is T2, Bcl1.364C Y389A, Y2H fusion (S. cerevisiae) (UniProt P53962).
T2 sequence: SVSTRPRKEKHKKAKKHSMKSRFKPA

Assay [8] concerns the target T3, Bcl1.364C R385A/P388A/Y389A, Y2H fusion (S. cerevisiae) (UniProt P53962).
T3 sequence: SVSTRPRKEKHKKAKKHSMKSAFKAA

In assay [9] the target is T4, Bcl1.323C Y389A, Y2H fusion (S. cerevisiae) (UniProt P53962).
T4 sequence: T1 sequence with A63R, A66P

Assay [10] concerns the target T5, Bcl1.323C R385A, Y2H fusion (S. cerevisiae) (UniProt P53962).
T5 sequence: T1 sequence with A66P, A67Y

The target of assay [11] is T6, Hrp1.504C, Y2H bait (S. cerevisiae) (UniProt Q99383).
T6 sequence: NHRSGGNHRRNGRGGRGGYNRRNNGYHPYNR

Assay [12] deals with T7, Bcl1.364C R385A, Y2H fusion (S. cerevisiae) (UniProt P53962).
T7 sequence: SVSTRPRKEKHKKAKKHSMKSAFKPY

Assay [13] deals with T8, Bcl1.364C, Y2H fusion (S. cerevisiae) (UniProt P53962).
T8 sequence: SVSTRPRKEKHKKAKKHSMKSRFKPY

The target in assay [14] is T9, Bcl1.323C P388A/Y389A, Y2H fusion (S. cerevisiae) (UniProt P53962).
T9 sequence: T1 sequence with A63R

Assay [15] concerns the target T10, Bcl1, full length, Y2H fusion (S. cerevisiae) (UniProt P53962).
T10 sequence: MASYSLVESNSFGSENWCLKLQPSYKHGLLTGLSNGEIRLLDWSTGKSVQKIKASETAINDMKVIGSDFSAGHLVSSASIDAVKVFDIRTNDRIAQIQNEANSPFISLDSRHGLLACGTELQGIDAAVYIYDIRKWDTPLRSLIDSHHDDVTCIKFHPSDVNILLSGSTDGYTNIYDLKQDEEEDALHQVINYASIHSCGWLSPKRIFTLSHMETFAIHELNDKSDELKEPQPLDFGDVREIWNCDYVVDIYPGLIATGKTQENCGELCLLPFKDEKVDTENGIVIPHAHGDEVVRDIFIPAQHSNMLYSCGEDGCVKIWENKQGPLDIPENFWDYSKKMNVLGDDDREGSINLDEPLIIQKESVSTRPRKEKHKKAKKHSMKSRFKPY

The target of assay [16] is T11, Bcl1.323C, Y2H fusion (S. cerevisiae) (UniProt P53962).
T11 sequence: T1 sequence with A63R, A66P, A67Y

Assay [17] concerns the target T12, Bcl1.364C P388A/Y389A, Y2H fusion (S. cerevisiae) (UniProt P53962).
T12 sequence: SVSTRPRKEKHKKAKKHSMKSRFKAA

Positions count from the first letter of the chain named. Numbers in names are those of the source. No constants are given. Whether binding was seen depends on the method and setting. Some results given as binding are weak or reduced against the parent protein; the word gives no strength. For some assays here: Tags and fused reporters may be left off the sequences shown.

B1: Bcl1, full length, Y2H fusion (protein, UniProt P53962 1-389)
chain: T10 sequence
On to B1, for which the binding entry in [1] is listed as “binds”; in assay [2], “no binding”; in assay [3] it was “no binding”; in [4] it was “no binding”; in [5], “no binding”.

B2: Kap104.305C, Y2H prey (domain or fragment, UniProt P38217 305-918)
chain: ATSPNIPEHILQPYVKDIVPILLSKMVYNEESIVLLEASNDDDAFLEDKDEDIKPIAPRIVKKKEAGNGEDADDNEDDDDDDDDEDGDVDTQWNLRKCSAATLDVMTNILPHQVMDIAFPFLREHLGSDRWFIREATILALGAMAEGGMKYFNDGLPALIPFLVEQLNDKWAPVRKMTCWTLSRFSPWILQDHTEFLIPVLEPIINTLMDKKKDVQEAAISSVAVFIENADSELVETLFYSQLLTSFDKCLKYYKKKNLIILYDAIGRFAEKCALDETAMQIILPPLIEKWALLSDSDKELWPLLECLSCVASSLGERFMPMAPEVYNRAFRILCHCVELEAKSHQDPTIVVPEKDFIITSLDLIDGLVQGLGAHSQDLLFPQGTKDLTILKIMLECLQDPVHEVRQSCFALLGDIVYFFNSELVIGNLEDFLKLIGTEIMHNDDSDGTPAVINAIWALGLISERIDLNTYIIDMSRIILDLFTTNTQIVDSSVMENLSVTIGKMGLTHPEVFSSGAFANDSNWNKWCLSVNALDDVEEKSSAYMGFLKIINLTSTEVTMSNDTIHKIVTGLSSNVEANVFAQEIYTFLMNHSAQISAINFTPDEISFLQQFTS
On to B2, for which the binding result is “no binding” in [6]; “no binding” in assay [7]; “no binding” in assay [8]; “no binding” in assay [9]; “binds” in assay [10]; “binds” in assay [11]. The binding entry is recorded as “binds” in assay [12]; “binds” in [13]; “no binding” in [14]; “binds” in [15]; “binds” in assay [16]; “no binding” in assay [17].
